According to PubChem BioAssay AID602332 (National Center for Advancing Translational Sciences (NCATS), 2012):
In all, about 420,000 compounds went through this assay and about 75 (0.02%) were called active. The shares of active, inactive and inconclusive entries below differ from those in the screen. The call rests on the fitted dose curve; in most records, active means well fitted activation curve with a large enough effect; inconclusive means small, poorly fitted or top-dose-only effect; inactive means no such curve, though single readings can be large or run the other way. Potencies beside an inconclusive call are fits to weak or partial responses and may not hold up.

Test: qHTS for Inducers of the Endoplasmic Reticulum Stress Response (ERSR) in Human Glioma: qHTS; further: nearly all actives have a fitted effect of over 35% in size; on activation: % of control where 0% means no effect
Conditions: U87-MG GRP78 promoter luciferase reporter, 16 h; activation: hits give high values
Outline: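 Stably transfected U87-MG glioma cells carrying a GRP78-based luciferase sensor; 16 h compound incubation. Luminescence end-point read 10 min after Bright-Glo addition at room temperature.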
Potency means the concentration at half of the fitted maximal effect; tags describe the fitted curve by direction and shape.

Potency, inconclusive:
O=C(CSc1ccccc1)N1CCN(S(=O)(=O)c2cccs2)CC1 14.1 µM [activator, single point]
Cc1ccc(C(=O)Oc2ccc(C(=O)COC(=O)C3CC(=O)N(Cc4ccco4)C3)cc2)cc1 (stereo not given) 44.7 µM [activator, partial curve, poor fit]
Brc1ccc(N=NNc2ccccc2)cc1 10 µM [activator, partial curve, poor fit]
O=C(c1cc(COc2ccccc2)on1)N1CCCC(CN2CCOCC2)C1 (stereo not given) 63.1 µM [activator, single point]
CC1=C[C@H]2OC(=O)[C@@H](C)[C@H]2C[C@@H]2[C@H]1C[C@@H](O)[C@@]2(C)O 63.1 µM [activator, single point]
CN1C2=CC=CC=CC2=[N+](C)C12C([N+](=O)[O-])=CC(=[N+]([O-])[O-])C=C2[N+](=O)[O-] (stereo not given) 39.8 µM [activator, partial curve, poor fit]
C=CC(=O)Oc1ccc(N2Cc3ccccc3C2=O)cc1 11.2 µM [activator, single point]
Clc1ccc2nc(COc3ccccc3)[nH]c2c1 2.24 µM [activator, partial curve, poor fit]
Cc1c(C(=O)NCc2ccc(Cl)cc2)sc2nc3n(c(=O)c12)CCCCC3 44.7 µM [activator, partial curve, poor fit]
Oc1ccc(Nc2nc(-c3ccc(Cl)cc3)cs2)cc1 2.24 µM [activator, full curve]
COc1ccc(/C=C/C(=O)c2ccc([N+](=O)[O-])o2)cc1 12.6 µM [activator, single point]
NC(=O)C1CCN(C(=O)CNC(=O)c2ccccc2)CC1 39.8 µM [activator, partial curve, poor fit]
CCc1c(C)sc(NC(=O)c2noc(C)c2[N+](=O)[O-])c1C#N 50.1 µM [activator, single point]
COc1ccc(/C=C/C(=O)c2ccc3c(c2)OCCO3)cc1[N+](=O)[O-] 12.6 µM [activator, single point]
Cc1cc(=O)c2c(O)c3c(O)cc(O)c4c5c(O)cc(O)c6c(O)c7c(=O)cc(C)c8c1c2c(c34)c(c65)c78 28.2 µM [activator, full curve, poor fit]
O=C(O)CCC(=O)N1CCN(c2nc(-c3ccccc3)c3cc(Br)ccc3n2)CC1 39.8 µM [activator, partial curve, poor fit]
CCOC(=O)c1ccc(Nc2nc(=O)c3cccnc3s2)cc1 7.94 µM [activator, partial curve, poor fit]
COCCNC(=O)Cn1cc(/C=C(\C#N)C(=O)NC2CCCC2)c2ccccc21 50.1 µM [activator, single point]
COc1ccc2nc(C)cc(SCC(=O)N/N=C/c3ccc(O)c(O)c3)c2c1 28.2 µM [activator, single point]
Nc1cc2c(cc1Br)[nH]c(=O)c1ccccc12 44.7 µM [activator, partial curve, poor fit]
Cc1ccnc(N(C(=O)Nc2ccccc2)C2=NCC(C)(C)S2)c1 20 µM [activator, single point]
Cc1cc(NC(=O)c2ccccc2)nc(C)n1 50.1 µM [activator, single point]
CC(OC(=O)C1CCN(S(=O)(=O)c2ccc(Cl)cc2)CC1)C(=O)N1CCc2ccccc21 (stereo not given) 11.2 µM [activator, single point]
CCCCN1C(=O)C(O)(CC(=O)c2ccc(CC)cc2)c2cc(Br)ccc21 (stereo not given) 50.1 µM [activator, single point]
O=C(N/N=C/c1ccccn1)c1cc(-c2ccc(Cl)cc2)nc2ccccc12 39.8 µM [activator, partial curve, poor fit]
O=C(C[n+]1cc(-c2ccc(F)cc2)n2c1CCC2)c1cccs1 11.2 µM [activator, single point]
O=C(COc1ccc2c3c(c(=O)oc2c1)CCCC3)NCCCN1CCOCC1 12.6 µM [activator, single point]
Cc1ccc(SC(CC(=O)c2ccc(C(C)(C)C)cc2)C(=O)O)cc1 (stereo not given) 20 µM [activator, single point]

activation, inactive:
CCCCn1c(N)c(C(=S)NC(=O)CC(C)C)c(=O)n(C)c1=O -2.32%
Cc1c(CCC(=O)O)c(=O)oc2cc3occ(-c4ccc(Cl)cc4)c3cc12 -0.585%
C=CCn1c(COc2ccccc2F)nnc1SCC(=O)c1c[nH]c2ccccc12 -5.23%
CC1(C)SC2C(C(=O)O)N=C(Cc3ccccc3)N2C1C(=O)O (stereo not given) 0.863%
CCOC(=O)c1cc(S(=O)(=O)NCc2ccccc2)[nH]n1 -3.15%
C#CCOCCOCCOCCNc1nc(N2CCN(C(=O)[C@H](CCCCN)n3cc(CC(C)O)nn3)CC2)nc(N2CCN(C(=O)[C@H](CCCCN)n3cc(CC(C)O)nn3)CC2)n1 (stereo not given in full) -3.83%
COc1cccc(-c2cc3c(c4c2ccn4C)C2CCC3C2)c1 (stereo not given) -4.44%
COC(=O)c1ccc(NC(=O)Cc2ccc(F)cc2)cc1 -3.03%
O=C(CN1C(=O)c2cccc3cccc(c23)C1=O)N1CCN(Cc2ccc3c(c2)OCO3)CC1 -0.986%
CC1=NNC(=O)/C1=C\c1cn(-c2ccccc2)nc1-c1ccc(Cl)cc1 -14.8%
COc1cc(OC)cc(C(=O)NCCCN2CCOCC2)c1 -4.2%
Cc1[nH]nc2c1C(c1ccco1)C(C#N)=C(N)O2 (stereo not given) -4.03%
